# Data taken from the supplement of paper PMC8728848.
# Some of the results follow.
# B1: CaSRK1 (Capsicum annuum) (protein)
# chain: MALCKIFPFAFILLSCSCYLISGQRFDYPTANLSTTWINSVSAPHSIDYTDGSRIRAILLRGTFGPRYACGFYCNGNCESYLFAIFIVQTNSASQITSPAIGFPQVVWSANRNNPVKINSTLQLTAEGDLVLRDADGTLAWSTNTAGKSVAGLSLTDEGNLALFDSKNATVWQSFDHPTDALVPGQKLVPGMKLTASVSRTNWTAGGLFALSAIDNGLVAFVESNPPQKYFEASVGGSNTSGGSNYVKYLNGSLTLFTHSADTTELILISITPASSAQYMKLESNGHLKVYEWTSRGWREVDDLLTGFRGECNYPTVCGRYGICTMGQCSCPTSSSSRTYFRPIDVRRPSLGCSEVTKLTCQNTKKHSPLEVEDVDYFAFKAGISDTDLNTCKRACLEKCSCKAAFFRSGLNSSRTRGDCYLPTEIFSIMNNEKDRTRYDSVAFIKVQV
# Legend:
# Assay in all cases: glycan array binding signal (z-score within array); higher = stronger binding
# Conditions in all cases: glycan notation: IUPAC condensed, linker removed
# [1] = target: GlcNAc(b1-3)Gal(b1-4)GlcNAc(b1-3)Gal(b1-4)GlcNAc(b1-2)[GlcNAc(b1-3)Gal(b1-4)GlcNAc(b1-3)Gal(b1-4)GlcNAc(b1-6)]Man(a1-6)[GlcNAc(b1-3)Gal(b1-4)GlcNAc(b1-3)Gal(b1-4)GlcNAc(b1-2)Man(a1-3)]Man(b1-4)GlcNAc(b1-4)[Fuc(a1-6)]GlcNAc
# Procedure, shortened: (§1)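 Negative Z-scores can be read as non-binding. The Z-score is calculated within each array and then averaged across arrays of one protein sequence at different concentrations or buffers and across linkers. Arrays, 3228 in all, were curated from the Consortium for Functional Glycomics database and kept only where the protein sequence was available.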
# [2] = target: GlcNAc(b1-3)Gal(b1-4)GlcNAc(b1-3)Gal(b1-4)GlcNAc(b1-3)Gal(b1-4)GlcNAc(b1-2)Man(a1-3)[GlcNAc(b1-3)Gal(b1-4)GlcNAc(b1-3)Gal(b1-4)GlcNAc(b1-3)Gal(b1-4)GlcNAc(b1-2)Man(a1-6)]Man(b1-4)GlcNAc(b1-4)GlcNAc
# Procedure, shortened: as §1
# [3] = target: GlcNAc(b1-3)Gal(b1-4)GlcNAc(b1-3)Gal(b1-4)GlcNAc(b1-3)Gal(b1-4)GlcNAc(b1-2)Man(a1-3)[GlcNAc(b1-3)Gal(b1-4)GlcNAc(b1-3)Gal(b1-4)GlcNAc(b1-3)Gal(b1-4)GlcNAc(b1-2)Man(a1-6)]Man(b1-4)GlcNAc(b1-4)[Fuc(a1-6)]GlcNAc
# Procedure, shortened: as §1
# [4] = target: GlcNAc(b1-3)Gal(b1-4)GlcNAc(b1-3)Gal(b1-4)GlcNAc(b1-3)Gal(b1-4)GlcNAc(b1-2)[GlcNAc(b1-3)Gal(b1-4)GlcNAc(b1-3)Gal(b1-4)GlcNAc(b1-3)Gal(b1-4)GlcNAc(b1-6)]Man(a1-6)[GlcNAc(b1-3)Gal(b1-4)GlcNAc(b1-3)Gal(b1-4)GlcNAc(b1-3)Gal(b1-4)GlcNAc(b1-2)Man(a1-3)]Man(b1-4)GlcNAc(b1-4)[Fuc(a1-6)]GlcNAc
# Procedure, shortened: as §1
# [5] = target: GlcNAc(b1-3)Gal(b1-4)GlcNAc(b1-3)Gal(b1-4)GlcNAc(b1-3)Gal(b1-4)GlcNAc(b1-3)Gal(b1-4)GlcNAc(b1-2)Man(a1-3)[GlcNAc(b1-3)Gal(b1-4)GlcNAc(b1-3)Gal(b1-4)GlcNAc(b1-3)Gal(b1-4)GlcNAc(b1-3)Gal(b1-4)GlcNAc(b1-2)Man(a1-6)]Man(b1-4)GlcNAc(b1-4)GlcNAc
# Procedure, shortened: as §1
# [6] = target: GlcNAc(b1-3)Gal(b1-4)GlcNAc(b1-3)Gal(b1-4)GlcNAc(b1-3)Gal(b1-4)GlcNAc(b1-3)Gal(b1-4)GlcNAc(b1-2)Man(a1-3)[GlcNAc(b1-3)Gal(b1-4)GlcNAc(b1-3)Gal(b1-4)GlcNAc(b1-3)Gal(b1-4)GlcNAc(b1-3)Gal(b1-4)GlcNAc(b1-2)Man(a1-6)]Man(b1-4)GlcNAc(b1-4)[Fuc(a1-6)]GlcNAc
# Procedure, shortened: as §1
# [7] = target: GlcNAc(b1-3)Gal(b1-4)GlcNAc(b1-3)Gal(b1-4)GlcNAc(b1-3)Gal(b1-4)GlcNAc(b1-3)Gal(b1-4)GlcNAc(b1-2)[GlcNAc(b1-3)Gal(b1-4)GlcNAc(b1-3)Gal(b1-4)GlcNAc(b1-3)Gal(b1-4)GlcNAc(b1-3)Gal(b1-4)GlcNAc(b1-6)]Man(a1-6)[GlcNAc(b1-3)Gal(b1-4)GlcNAc(b1-3)Gal(b1-4)GlcNAc(b1-3)Gal(b1-4)GlcNAc(b1-3)Gal(b1-4)GlcNAc(b1-2)Man(a1-3)]Man(b1-4)GlcNAc(b1-4)[Fuc(a1-6)]GlcNAc
# Procedure, shortened: as §1
# [8] = target: GlcNAc(b1-3)Gal(b1-4)GlcNAc(b1-3)Gal(b1-4)GlcNAc(b1-3)GalNAc
# Procedure, shortened: as §1
# [9] = target: GlcNAc(b1-3)Gal(b1-4)GlcNAc(b1-3)GalNAc
# Procedure, shortened: as §1
# [10] = target: GlcNAc(b1-3)Gal(b1-4)GlcNAc(b1-3)[GlcNAc(b1-3)Gal(b1-4)GlcNAc(b1-3)]GalNAc
# Procedure, shortened: as §1
# [11] = target: GlcNAc(b1-3)Gal(b1-4)GlcNAc(b1-6)[Gal(b1-3)]GalNAc
# Procedure, shortened: as §1
# [12] = target: GlcNAc(b1-3)Gal(b1-4)GlcNAc(b1-6)[GlcNAc(b1-3)Gal(b1-3)]GalNAc
# Procedure, shortened: as §1
# [13] = target: GlcNAc(b1-3)Gal(b1-4)GlcNAc(b1-6)[GlcNAc(b1-3)]Gal(b1-4)GlcNAc
# Procedure, shortened: as §1
# GlcNAc(b1-3)GalNAc = target: GlcNAc(b1-3)GalNAc
# Procedure, shortened: as §1
# GlcNAc(b1-3)Man = target: GlcNAc(b1-3)Man
# Procedure, shortened: as §1
# [14] = target: GlcNAc(b1-3)[GlcNAc(b1-4)][GlcNAc(b1-6)]GlcNAc
# Procedure, shortened: as §1
# [15] = target: GlcNAc(b1-3)[GlcNAc(b1-6)]Gal(b1-4)GlcNAc
# Procedure, shortened: as §1
# [16] = target: GlcNAc(b1-3)[GlcNAc(b1-6)]GalNAc
# Procedure, shortened: as §1
# [17] = target: GlcNAc(b1-4)Gal(b1-4)GlcNAc
# Procedure, shortened: as §1
# GlcNAc(b1-4)GlcNAc = target: GlcNAc(b1-4)GlcNAc
# Procedure, shortened: as §1
# [18] = target: GlcNAc(b1-4)GlcNAc(b1-4)GlcNAc
# Procedure, shortened: as §1
# [19] = target: GlcNAc(b1-4)GlcNAc(b1-4)GlcNAc(b1-4)GlcNAc(b1-4)GlcNAc
# Procedure, shortened: as §1
# [20] = target: GlcNAc(b1-4)GlcNAc(b1-4)GlcNAc(b1-4)GlcNAc(b1-4)GlcNAc(b1-4)GlcNAc
# Procedure, shortened: as §1
binder,measurement,setting,value
B1,glycan array binding signal (z-score),[1],-0.125
same,glycan array binding signal (z-score),[2],-0.517
same,glycan array binding signal (z-score),[3],1.07
same,glycan array binding signal (z-score),[4],-0.358
same,glycan array binding signal (z-score),[5],1.35
same,glycan array binding signal (z-score),[6],-0.423
same,glycan array binding signal (z-score),[7],-0.553
same,glycan array binding signal (z-score),[8],-0.477
same,glycan array binding signal (z-score),[9],-0.513
same,glycan array binding signal (z-score),[10],-0.188
same,glycan array binding signal (z-score),[11],-0.043
same,glycan array binding signal (z-score),[12],-0.031
same,glycan array binding signal (z-score),[13],-0.484
same,glycan array binding signal (z-score),GlcNAc(b1-3)GalNAc,-0.476
same,glycan array binding signal (z-score),GlcNAc(b1-3)Man,-0.252
same,glycan array binding signal (z-score),[14],-0.34
same,glycan array binding signal (z-score),[15],-0.584
same,glycan array binding signal (z-score),[16],-0.385
same,glycan array binding signal (z-score),[17],0.409
same,glycan array binding signal (z-score),GlcNAc(b1-4)GlcNAc,0.981
same,glycan array binding signal (z-score),[18],-0.175
same,glycan array binding signal (z-score),[19],0.244
same,glycan array binding signal (z-score),[20],0.204
